# Laboratory results taken from ChEMBL document CHEMBL4888484, “Replenishing the malaria drug discovery pipeline: Screening and hit evaluation of the MMV Hit Generation Library 1 (HGL1) against asexual blood stage Plasmodium falciparum ,using a nano luciferase reporter read-out” (2022).
# Screen size: about 150,000 compounds; about 540 (0.36%) showed an effect of 50% or more. This is one part of the list.
# Test system: Plasmodium falciparum
# Assay: Primary screen in NF54 nanoGlo assay, in single point, at 2uM, 72h; a lower Z score goes with more inhibition
# Format: functional, Erythrocyte
# Details: timepoint 72 hour
Structure (SMILES),% Inhibition [%],Z score
O=C1N(C2CCCCC2)C[C@H]2CN(Cc3cccc(Cl)c3)CCN12,15,-1.71
O=C(Nc1cccc2c1CCCC2)C1CC(=O)N(C2CCS(=O)(=O)C2)C1 (centres undefined),-8,1.6
O=C1CNc2cc(NS(=O)(=O)N3CCCCC3)ccc2O1,-17,1.59
C=CCC[C@@H](CN(C)Cc1cccnc1)Oc1cc(CC)ncn1,-4,0.62
FC(F)c1cc(-c2ccc(Cl)cc2)nc(NCCc2ccccc2)n1,-4,0.67
Cc1cc(C)cc(CN2CCN(Cc3c[nH]cn3)[C@@H]3CS(=O)(=O)C[C@@H]32)c1,-5,0.58
COCC1(CNC(=O)[C@H](C)c2ccc(OC)cc2)CCN(C(=O)OC(C)(C)C)CC1,-17,3
O=C(NC[C@H]1CCCO1)C1CCN(S(=O)(=O)c2ccc3c(c2)CCC3)CC1,9,-1.69
CC(=O)NCCc1nc(Cn2cncn2)nn1-c1ccccc1,2,-0.4
CCC(=O)N1c2ccc(S(=O)(=O)N3CCCCC3)cc2C[C@H]1C(=O)NCc1ccc(C)o1,-7,0.95
CC(=O)N1CC(OCC(=O)N(Cc2cccnc2)c2ccc(Cl)cc2)C1,-1,0.09
CC[C@@H](CCNc1ncccc1F)N1CCCC1=O,-18,1.81
COc1ccc(CCNC(=O)N2CCC(Oc3nc4c(F)cccc4s3)CC2)cc1,-18,2.62
COc1cc(N[C@H]2CCN(C)C2=O)nc(N)n1,-5,0.65
Cc1nn(CCC#N)c(C)c1[C@@H]1C=C[C@@H](NC(=O)Nc2ccccc2)C1,25,-2.81
O=C(C1CCCOC1)N1CCC(c2cccc(C(F)(F)F)c2)C1 (centres undefined),-7,0.73
C[C@H]1CN(c2nc3cc(S(N)(=O)=O)ccc3[nH]2)CC(=O)N1,-9,1.71
Cc1cc(OCC(=O)N(C)C)ccc1Cl,-8,1.05
COc1ccccc1[C@H](c1oc2ccccc2c1NC(=O)c1ccccc1)N1CCN(C)CC1,-15,2.37
O=C(NC1CCN(c2ccccc2C(=O)NCCN2CCCCC2)CC1)c1ccc(C(F)(F)F)cc1,-13,1.58
Cc1cc(C2CCC2)nc(N2CCC(O)(CO)CC2)n1,-2,0.27

Structure (SMILES),% Inhibition [%],Z score
COCc1nc(CNC2Cc3ccccc3C2)no1,1,-0.11
O=C1Nc2cc(C(=O)N3CCN(c4ccccn4)CC3)ccc2N2CCCC[C@@H]12,-9,1.27
CCc1nc(C)c(C(=O)N(C)Cc2csc(-c3ccccc3)n2)s1,-4,0.61
Fc1cnc(NCC2(c3ccncc3)CC2)nc1,-15,1.73
COc1cccc(NC(=O)[C@@H]2CC(=O)Nc3nnc(-c4ccco4)n32)c1,-4,0.49
CC(C)(C)OC(=O)N1CCC[C@H]1C(=O)N1CCCCCCC1,-9,1
Cc1cc(CC(=O)N(Cc2csc(C)n2)c2ccc(F)cc2)no1,-16,2.53
Cc1cccc(-c2nocc2CCC(=O)NCc2cccs2)c1,-12,1.59
CN1C(C(=O)N2CCN(C(=O)c3ccco3)CC2)=CC(c2ccco2)=NS1(=O)=O,-10,1.91
Cc1c(C(=O)N[C@@H](CC(N)=O)C2CCCCC2)cnn1C1CCCC1,-6,0.89
CC(C)N(C(=O)Cn1ccncc1=O)C(C)C,-10,1.46
O=C(c1nc2ncccn2n1)N1CCCO[C@@H](CN2CCCC2)C1,-6,0.5
O=c1c2ccncc2ncn1CC1(O)CCCCC1,-2,0.39
COCC1(C(=O)N(C)Cc2cc(-c3cccs3)n[nH]2)CCC1,1,-0.2
O=C(Nc1ccc2oc(-c3ccc4ccccc4c3)nc2c1)c1ccc(Cl)c(Cl)c1,-4,0.75
COc1cccc([C@H]2C[C@H](N(C)C(=O)c3ccc(C(=O)O)cc3)C2)c1,-16,3.11
COc1cccc(CC(=O)N2CCC(F)(C(=O)N3CCCC3)CC2)c1,4,-0.77
COc1cc(C(=O)N2CC[C@H]3[C@H](CCC(=O)N3CCCO)C2)ccn1,1,-0.12
Nc1nccnc1C(=O)Nc1ccc(OCC2CC2)cc1,2,-0.34
CN(C[C@H]1CCOC1)OCc1ccccc1,-6,0.89
Cn1cnc2[nH]c(=O)cc(C(=O)NCc3n[nH]c(C(C)(C)C)n3)c21,-14,1.72
